Reference: ChEMBL document CHEMBL1201862, “PubChem BioAssay data set” (2004)

system: NCI-H322M; test: NCI-60 cell line screen, 48 h

SMILES	GI50
CC(=O)CC[N+](C)(C)C	inactive: > 100 µM
N#Cc1c(O)n(-c2ccccc2)c(=O)c2c(N)n[nH]c12	inactive: > 100 µM
COC1C(OC(=O)/C=C/C=C/C=C/C=C\C(=O)O)CCC2(CO2)C1C1(C)OC1CC=C(C)C (centres undefined)	inactive: > 100 µM
C=C1c2ccccc2N(S(=O)(=O)c2ccc(C)cc2)C12CCCCC2	inactive: > 100 µM
CC1=C(C(=O)Nc2ccc(Cl)c(C(=O)OC(C)C)c2)SCCO1	inactive: 74.1 µM
COc1cc(C)c(S(=O)(=O)N(CCCN)OCCCN)c(C)c1C	inactive: > 100 µM
CCOC(=O)c1cc(C2CCN(Cc3ccccc3)C2=S)c(C(=O)C=[N+]=[N-])[nH]1 (centres undefined)	inactive: 31.8 µM
CC(c1ccccc1)N1CC(C)(c2ccccc2)N(O)C(c2ccccc2)C1C (centres undefined)	inactive: 24.8 µM
Cc1nc(C(N)=S)sc1C(=O)CC(=O)C(=O)Nc1cccc(Cl)c1C	inactive: > 100 µM
CCCC[C@H]1CCN2C[C@@H](O)[C@@H](O)[C@H]2[C@@H]1O	inactive: > 100 µM
O/N=N/c1ccccn1.OCC1OC2OC3C(CO)OC(OC4C(CO)OC(OC5C(CO)OC(OC6C(CO)OC(OC7C(CO)OC(OC1C(O)C2O)C(O)C7O)C(O)C6O)C(O)C5O)C(O)C4O)C(O)C3O (centres undefined)	inactive: > 100 µM
CC(=O)Nc1ccc(/C=C/[N+](=O)[O-])cc1	inactive: 9.23 µM
[O-][S+]1CSCS1 (centres undefined)	inactive: > 100 µM
Oc1cc(-c2ccc(Oc3ccccc3)cc2)nc2cc3c(cc12)OCO3	inactive: > 100 µM
Cc1ccccc1NC(=O)c1c(C)oc2c1C(=O)c1ccccc1C2=O	inactive: 70.5 µM
Clc1ccc(C2=CCN3CC=C(c4ccc(Cl)cc4)C23)cc1	inactive: 16.3 µM
Oc1cc2c(cc1O)-c1[nH]ncc1CC2	inactive: 38.9 µM
CCN(CC)C(=O)c1cc([N+](=O)[O-])c(=O)n2c1[nH]c1ccccc12	inactive: > 100 µM
N=C1N(/N=C/c2ccccn2)/C(=N\c2ccccc2)C(=S)N1c1ccccc1	inactive: 11.2 µM
Cc1cc(C)c(N)c(CO)c1	inactive: > 100 µM and inactive: > 75 µM
COc1cc2c(c(OC)c1OC)C(=O)[C@@H]1[C@H]2N1C(=O)NCCCl	inactive: 40.8 µM
NCCS [CYSTEAMINE HYDROCHLORIDE]	inactive: > 100 µM
O/N=C\c1c(O)ccc2ccccc12	inactive: 26.1 µM

SMILES	GI50
CNC(=O)N(C1=NCC(C)S1)c1ccc(C)c(C)c1 (centres undefined)	inactive: 4.78 µM
CC1(C)CC23C(=O)N(c4ccccc4)C(Nc4ccccc4)=NC2=CC(C#N)=C(C#N)C3O1 (centres undefined)	inactive: 99.3 µM
NC(=O)CCC(CCC(N)=O)(CCC(N)=O)[N+](=O)[O-]	inactive: > 100 µM
COc1ccc(NC(C)=O)cc1N1C(=O)/C(=C\c2cccc(Oc3ccccc3)c2)S(=O)(=O)C1c1ccccc1 (centres undefined)	inactive: > 100 µM
O=C(O)CCC(NC(=O)c1ccc(Nc2nc3ccccc3nc2C(=O)O)cc1)C(=O)O (centres undefined)	inactive: > 100 µM
COC(=O)C(=O)C(CC(=O)Nc1ccc(C)cc1)C(=O)OC (centres undefined)	inactive: > 100 µM
Cc1nc2ccc(Cl)cc2c(Cl)c1CCCl	inactive: > 100 µM
O=c1n(CCCN2CCN(c3cccc(Cl)c3)CC2)nc2n1-c1ccc3ccccc3c1SC2	inactive: > 100 µM
O=C1N=C2Sc3ccc4ccccc4c3N2C1=O	inactive: 26.1 µM
CC1=C2C(=O)c3ccccc3C(=O)[C@H]2[C@H]2CCO[C@H]2O1	inactive: > 100 µM
Cc1[nH]c2ccccc2c1/C=N/c1ccc(/N=C/c2c(C)[nH]c3ccccc23)cc1	inactive: 46 µM
COc1cc(=O)oc(/C=C/C=O)c1C	inactive: 82.6 µM
O=C(c1ccccc1)N1N=C(C(F)(F)F)CC1(O)C(F)(F)F (centres undefined)	inactive: > 100 µM
O=C(O)c1ccc(C(=O)Nc2cccc3ccccc23)c(C(=O)O)c1	inactive: > 100 µM
CCC(=O)N1C(=O)OCC1C(C)C (centres undefined)	inactive: > 100 µM
Cc1ccccc1NC(=O)NC(Oc1ccccc1)(C(F)(F)F)C(F)(F)F	inactive: > 100 µM
N#Cc1cc([N+](=O)[O-])ccc1NC(=O)C(=O)Nc1n[nH]c(N)n1	inactive: > 100 µM
O=c1[nH]c(=O)n(C2OC(CO)C(O)C2O)c2ccsc12 (centres undefined)	inactive: > 100 µM
O=C1N2Cc3c4ccc5c3CN3C(=O)N6Cc7c(ccc(c7CN1C6(c1ccccc1)C23c1ccccc1)OCCOCCOc1cc(Br)c(Br)cc1OCCOCCO4)OCCOCCOc1cc(Br)c(Br)cc1OCCOCCO5 (centres undefined)	inactive: > 100 µM
O=C1c2c(c(-c3ccccc3)c(-c3ccccc3)c(-c3ccccc3)c2-c2ccccc2)C(=O)N1c1cccc(Br)c1	inactive: > 100 µM
NCC(=O)NC(CO)C(=O)O (centres undefined)	inactive: > 100 µM
COC1O[C@H]2CCN(C(=O)OCc3ccccc3)[C@H]2[C@H]1OCc1ccccc1 (some centres undefined)	inactive: > 100 µM
CC1=C(C#N)C(N)=C2C(C)=C(C#N)C(N)=C12	inactive: > 100 µM

SMILES	GI50
COc1ccc(N[S+]([O-])CCCc2ccccc2)cc1 (centres undefined)	inactive: > 100 µM
Cc1cc(C)[n+]2c(c1)C=CC2.[O-][Cl+3]([O-])([O-])[O-]	inactive: 40.6 µM
CN(C)CC/C=C1\c2ccccc2Sc2ccc(Cl)cc21	inactive: 11.6 µM
CC(C)CCCC(C)[C@H]1CC[C@H]2[C@@H]3CC[C@H]4C[C@@H](CCC=C(c5cc(Cl)c(O)c(C(=O)OC(C)(C)C)c5)c5cc(Cl)c(O)c(C(=O)OC(C)(C)C)c5)CC[C@]4(C)[C@H]3CC[C@]12C (some centres undefined)	inactive: > 50 µM
Cc1nnc(N)nc1/C=C\c1cccs1	inactive: 23.5 µM
CCCCC1=NNC(=O)C1	inactive: > 100 µM
Nc1ncc2c(n1)-c1ccccc1OC2	inactive: > 93.3 µM
CC(=O)N1OC(C)CC1Nc1ccc(Br)cc1 (centres undefined)	inactive: > 100 µM
O=C1/C(=C/c2cccnc2)SC(=S)N1Cc1ccco1	inactive: 29.4 µM
CC(C)(Oc1ccc(Cl)cc1)C(=O)N(C(=O)N1CCN(c2ccccc2)CC1)c1ccccc1	inactive: 51.6 µM
CC(C)[C@H]1CO[C@@H]2O[C@H](C)CC(=O)N21	inactive: > 100 µM
CC(=O)N(CCc1ccccc1)C(C#N)c1ccc(OCCCCCCCCCCOc2ccc(C(C#N)N(CCc3ccccc3)C(C)=O)cc2)cc1 (centres undefined)	inactive: 91.4 µM
N#Cc1[nH]c(=O)n(-c2ccc(Cl)cc2)c1N	inactive: > 10 µM
COc1cc(C(C)c2cc3c(cc2OCCCCOc2cc4c(cc2C(C)c2cc(OC)c(OC)c(OC)c2)OCO4)OCO3)cc(OC)c1OC (centres undefined)	inactive: 80.9 µM
COc1nc(NC2OCC(OC(C)=O)C(OC(C)=O)C2OC(C)=O)c(-c2csc(N)n2)c(=O)n1C (centres undefined)	inactive: > 100 µM
CCOC(=O)c1cc2cc(N(C(C)=O)C(C)=O)ccc2s1	inactive: 27.3 µM
CC12OC3CC(O1)C1(C=O)C4CCC5(C)C(c6ccc(=O)oc6)CCC5(O)C4CCC1(C3)O2 (centres undefined)	active: 0.34 µM
CC(=O)Oc1ccc2c(=O)c(C(C)=O)coc2c1	inactive: > 100 µM
Cc1cc2c(cc1Cl)SC(N/N=C(\N)c1ccc(Cl)cc1)=NS2(=O)=O	inactive: 57.9 µM
C=CCCCC1CCCNC1=S (centres undefined)	inactive: > 100 µM
O=[N+]([O-])c1cc(Cl)cc2c1nc(NCCO)c1ccccc12	inactive: 6.55 µM
CCCCCCCCCCC(O)CCCCCCC(=O)O (centres undefined)	inactive: 20.2 µM
COCCOCCOCCOc1cccc2c1C(=O)c1cccc(OCCOCCOCCOC)c1C2=O	inactive: > 100 µM

SMILES	GI50
CC(C(=O)NCCNC(=O)CCCC(=O)N(C)O)C(=O)NCCNC(=O)CCCC(=O)N(C)O	inactive: > 100 µM
CCOC(=O)NC(C(=O)OCC)(N1CCN(c2cc3c(cc2F)c(=O)c(C(=O)O)cn3CC)CC1)C(F)(F)F (centres undefined)	inactive: > 100 µM
CCOC(=O)[C@@]1(C)C=C2O[C@@H]3OC4(CCCCC4)O[C@@H]3C2=C2C(O)=CC=C(O)[C@]21C(=O)OC	inactive: > 68.1 µM
O=C1C2SC34c5c2c2ccccc2n5CCC3CCCN14 (centres undefined)	inactive: > 100 µM
COc1cc2c(cc1OC)C(Cl)C(c1ccc(F)cc1)=C2Cl (centres undefined)	inactive: 17.1 µM
O=C1Nc2cccc(Cl)c2/C1=C\c1c(-c2ccccc2)nc2n1CCS2	inactive: 26.5 µM
CO[C@]12C#CC=CC#C[C@@H](O)[C@]3(CCC1)O[C@@]23c1cccc(O)c1	inactive: > 100 µM
COC(=O)C1=C(C)NC2=C(C(=O)c3ccccc32)C1c1cn(-c2ccccc2)nc1-c1ccccc1 (centres undefined)	inactive: > 100 µM
CCCCc1ccc(-n2c(C)c(COC(=O)NC)c(COC(=O)NC)c2C)cc1	inactive: 10.3 µM
CCC1CCC2C3CC=C4CC(OC(C)=O)C(N)CC4(C)C3CCC12C (centres undefined)	inactive: 3.49 µM
CCn1sc2ccccc2c1=O	inactive: 27.8 µM
COC12C=C(C)C(CC1)CC2C(=O)O (centres undefined)	inactive: > 100 µM
COC(=O)c1ccc(/C=C(\c2ccc([N+](=O)[O-])o2)S(=O)(=O)c2ccc(NC(C)=O)cc2)o1	inactive: 18.7 µM
C[C@@H](NC(=O)c1ccc(CNC(=O)/C=C/c2cccc(Oc3ccccc3)c2)cc1)c1ccccc1	inactive: > 52.1 µM
COC(=O)C(CC(=O)Nc1ccc(Cl)c(Cl)c1)C(=O)C(=O)NC1C2CC3CC(C2)CC1C3 (centres undefined)	inactive: > 100 µM
O=[N+]([O-])c1ccc(CSC2=C(c3ccc(Cl)cc3)S/C(=C3\SC(SCc4ccc([N+](=O)[O-])cc4)=C(c4ccc(Cl)cc4)S3)S2)cc1	inactive: > 100 µM
CCCCCCCC(=O)NC(C)(C)C(=O)NC(COC(C)(C)C)C(=O)NC(CC(C)C)C(=O)NC(C)(C)C(=O)NC(COC(C)(C)C)C(=O)NC(COC(C)(C)C)C(=O)NC(CC(C)C)C(=O)NC(C)(C)C(=O)NC(COC(C)(C)C)C(=O)NC(C(=O)NC(CC(C)C)C(=O)OC)C(C)CC (centres undefined) (Octanoyl-[Aib]S(tBu)L[Aib]S(tBu)S(tBu)L[Aib]S(tBu)IL-OMe; configuration not given here)	inactive: 7.87 µM
Brc1ccccc1C1SCc2nc3ccccc3n21 (centres undefined)	inactive: 30.3 µM
C=C(CO)[C@H]1CC/C(C)=C/CC/C(C)=C/C/C=C(\C)[C@H](O)C1	inactive: > 100 µM
NNC(=O)CSc1nnc(CCCCCCCCc2nnc(SCC(=O)NN)o2)o1	inactive: > 100 µM

Values joined by “and” are separate entries in the source; they are usually repeats but may differ in a detail not shown here. Equal entries are not always repeated. Structures can show the parent of a compound that is named as a salt.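 How tested: cells in 96-well plates exposed to compound for 48 hours at five concentrations. GI50 = concentration required for 50% inhibition of growth.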 Active and inactive are the calls of the source. No stated cut-off is given here; in the data, active = GI50 up to about 1.1 µM and inactive = higher. Square brackets hold non-standard residues; d marks the D form. Peptide text beside a SMILES is read from it. * marks the point of attachment. Octanoyl = CCCCCCCC(=O)*; Aib = CC(C)(N)C(=O)O; tBu = CC(C)(C)*
